# Experimental data published in the supplement of paper PMC7826260.
# Some of the results follow. One pool of 16,384 single-stranded DNAs met each Rep nickase domain in vitro at 3 µM enzyme and 37 °C for 1 h; the strands have 90 letters, of which the middle is given. Numbers give uncut DNA relative to the enzyme-free pool, as log2; uncut sequences lie near 0, cut ones below; no hit call is given. Because reads are shares of a total, they shift together; values above 0 arise when much of the pool is cut.
# How the values were obtained:
# Test in all cases: uncleaved DNA left, log2 of reads against the no-enzyme library (log2 ratio); higher = less cleavage (more negative = more Rep cleavage of the k-mer); sequences stand for … in CTCGTCCG…ACCGGAGA
# [1] = test system: T1, Rep nickase domain of Muscovy duck circovirus
# T1 sequence (protein, residues 1-111, tag omitted): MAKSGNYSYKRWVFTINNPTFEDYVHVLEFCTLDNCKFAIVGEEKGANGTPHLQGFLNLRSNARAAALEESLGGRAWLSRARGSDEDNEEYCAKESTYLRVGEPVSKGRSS
# Method: (§1)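 A pool of 90-nt single-stranded DNAs with seven random bases just before the constant AC of the nick site (name = the seven bases) was cut by 3 µM recombinant His6-SUMO-tagged Rep nickase domain (300 nM DNA, 50 mM HEPES pH 8.0, 50 mM NaCl, 1 mM MnCl2, 1 h, 37 °C, three replicates). Uncut DNA was amplified and sequenced.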
# [2] = test system: T2, Rep nickase domain of banana bunchy top virus
# T2 sequence (protein, residues 1-94, tag omitted): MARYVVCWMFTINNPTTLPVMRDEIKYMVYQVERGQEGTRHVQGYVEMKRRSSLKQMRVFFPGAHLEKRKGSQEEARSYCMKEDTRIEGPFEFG
# Method: as §1
# [3] = test system: T3, Rep nickase domain of cabbage leaf curl virus
# T3 sequence (protein, residues 1-116, tag omitted): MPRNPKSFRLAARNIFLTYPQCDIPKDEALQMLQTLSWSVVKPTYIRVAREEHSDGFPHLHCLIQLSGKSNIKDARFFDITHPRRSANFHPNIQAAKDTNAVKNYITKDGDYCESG
# Method: as §1
# [4] = test system: T4, Rep nickase domain of chickpea chlorotic dwarf virus
# T4 sequence (protein, residues 1-124, tag omitted): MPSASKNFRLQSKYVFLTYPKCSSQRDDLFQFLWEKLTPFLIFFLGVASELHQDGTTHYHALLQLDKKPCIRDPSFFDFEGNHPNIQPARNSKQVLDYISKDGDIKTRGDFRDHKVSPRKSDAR
# Method: as §1
# [5] = test system: T5, Rep nickase domain of faba bean necrotic yellows virus
# T5 sequence (protein, residues 1-98, tag omitted): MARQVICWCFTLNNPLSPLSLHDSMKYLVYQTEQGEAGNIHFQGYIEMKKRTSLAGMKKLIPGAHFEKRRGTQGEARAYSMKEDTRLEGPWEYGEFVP
# Method: as §1
# [6] = test system: T6, Rep nickase domain of maize striate mosaic virus
# T6 sequence (protein, residues 1-117, tag omitted): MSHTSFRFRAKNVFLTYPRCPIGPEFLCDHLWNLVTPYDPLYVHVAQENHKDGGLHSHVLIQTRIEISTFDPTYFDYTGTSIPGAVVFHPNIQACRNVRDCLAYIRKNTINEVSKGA
# Method: as §1
# [7] = test system: T7, Rep nickase domain of porcine circovirus 2
# T7 sequence (protein, residues 2-116, tag omitted): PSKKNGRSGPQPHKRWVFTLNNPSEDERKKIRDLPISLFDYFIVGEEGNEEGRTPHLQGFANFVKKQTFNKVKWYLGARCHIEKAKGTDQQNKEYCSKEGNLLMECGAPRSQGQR
# Method: as §1
# [8] = test system: T8, Rep nickase domain of tomato golden mosaic virus
# T8 sequence (protein, residues 1-124, tag omitted): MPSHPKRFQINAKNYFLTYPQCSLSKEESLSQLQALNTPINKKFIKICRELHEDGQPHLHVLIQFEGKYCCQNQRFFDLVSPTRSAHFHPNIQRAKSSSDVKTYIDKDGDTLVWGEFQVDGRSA
# Method: as §1
# [9] = test system: T9, Rep nickase domain of tomato yellow leaf curl virus
# T9 sequence (protein, residues 1-136, tag omitted): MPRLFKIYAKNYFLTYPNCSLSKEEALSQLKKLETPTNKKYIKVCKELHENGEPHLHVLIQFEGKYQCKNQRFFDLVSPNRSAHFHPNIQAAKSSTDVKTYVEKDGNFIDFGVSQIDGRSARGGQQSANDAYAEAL
# Method: as §1
# [10] = test system: T10, Rep nickase domain of wheat dwarf virus
# T10 sequence (protein, residues 1-137, tag omitted): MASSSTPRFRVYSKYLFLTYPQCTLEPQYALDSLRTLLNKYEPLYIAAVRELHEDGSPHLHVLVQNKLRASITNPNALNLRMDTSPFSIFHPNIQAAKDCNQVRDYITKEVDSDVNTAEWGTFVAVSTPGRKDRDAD
# Method: as §1
Sequence,uncleaved DNA left (log2) [1],uncleaved DNA left (log2) [2],uncleaved DNA left (log2) [3],uncleaved DNA left (log2) [4],uncleaved DNA left (log2) [5],uncleaved DNA left (log2) [6],uncleaved DNA left (log2) [7],uncleaved DNA left (log2) [8],uncleaved DNA left (log2) [9],uncleaved DNA left (log2) [10]
ACATTAG,0.00129,-0.0374,-0.589,0.25,0.0394,-0.654,0.131,0.0222,0.0171,-0.0565
GCTCGCA,0.0244,-0.0151,-0.0602,0.23,-0.0964,-0.546,0.0636,0.0354,-0.0566,-0.0627
AAAATTG,-0.0108,-0.0385,-0.572,-0.693,-0.0475,-1.15,0.122,0.0768,-0.0566,-0.058
AGTGGAA,0.19,0.0782,0.449,1.2,0.0231,1.42,-0.0606,0.0744,0.0385,0.171
CGGCGTC,-0.09,-0.0341,-0.329,-0.0699,-0.0459,-0.435,0.0612,-0.042,-0.0972,-0.0355
AAGGGTT,0.155,-0.0148,0.102,1.47,-0.0812,1.72,-0.0847,0.0703,-0.146,-0.0295
ATGCGCG,-0.0643,-0.0918,-0.712,0.0967,0.115,-0.881,0.111,0.102,-0.0429,-0.228
ATATCCG,-0.0757,-0.104,-0.797,0.0177,-0.0538,-1.07,0.123,-0.048,-0.163,-0.057
AGAAAAC,0.0545,0.0482,0.153,0.0543,-0.00733,-0.363,0.042,0.00282,-0.0389,0.0476
AGCCAGG,0.153,0.258,0.153,0.651,0.213,0.824,0.191,0.153,0.0621,0.159
CTCCCCG,-0.0607,-0.0391,-0.868,0.0128,0.0256,-0.692,-0.0244,-0.0668,-0.0783,-0.103
ACTAATT,0.0298,-0.0329,-0.0792,-2.4,-0.0047,-0.669,-2.11,0.0807,0.0405,0.0669
CTGAAAC,0.244,0.123,0.0461,-0.158,0.145,-0.422,0.0965,0.101,0.0469,0.101
TCGGATG,-0.0242,-0.0828,-0.0324,0.465,-0.149,0.871,0.0393,-0.099,-0.152,-0.178
CCAATAA,-0.13,-0.171,-0.343,-0.453,-0.081,-0.949,-0.0868,-0.184,-0.261,-0.158
TTATAGG,0.0105,-0.0628,0.429,1.31,0.061,1.56,0.119,0.0248,-0.00191,0.0938
GAATCAT,-0.0841,0.165,-1.14,-1.02,0.0308,1.82,-0.903,-0.0919,0.083,0.0663
GCAGTTA,0.0648,-0.112,-0.0768,-0.466,-0.0258,-0.0665,-0.0994,0.0681,0.0856,-0.0288
CCGTATC,-0.109,-0.187,0.0218,-0.214,-0.0651,-0.511,-0.268,-0.0796,-0.0718,-0.235
GTGGGTC,-0.0565,-0.0468,0.248,0.88,-0.138,1.86,-0.00384,-0.0232,-0.0521,-0.0421

Sequence,uncleaved DNA left (log2) [1],uncleaved DNA left (log2) [2],uncleaved DNA left (log2) [3],uncleaved DNA left (log2) [4],uncleaved DNA left (log2) [5],uncleaved DNA left (log2) [6],uncleaved DNA left (log2) [7],uncleaved DNA left (log2) [8],uncleaved DNA left (log2) [9],uncleaved DNA left (log2) [10]
CTTGAGG,0.0557,0.0543,0.473,1.35,0.0783,1.45,0.138,0.152,-0.112,0.0969
CACCGCA,0.00254,0.101,-0.338,-1.48,0.0955,-0.857,-0.066,0.00266,0.00879,-0.101
TATTGCA,-1.11,-0.136,-0.642,-0.566,0.0593,-0.648,-0.419,-0.0215,0.104,-0.0596
GACAAAG,0.151,0.016,-0.501,-0.429,0.0295,-0.922,0.0508,0.0733,0.117,0.0235
GGGAACA,0.0915,0.145,0.907,2.15,-0.00697,2.31,0.219,0.102,0.0219,0.153
AGGAGGC,0.00965,-0.00913,0.175,0.415,0.034,-0.107,0.225,-0.0699,-0.107,-0.000803
GCTTGAC,-0.0242,-0.0527,0.123,0.0933,0.0556,0.362,0.0153,-0.0365,-0.104,-0.0772
CCGGCAG,0.0119,-0.0131,-0.352,-0.376,0.00473,-0.695,0.0886,0.18,-0.0409,-0.0921
TCCGGGC,-0.00812,0.000783,0.307,0.681,0.0969,1.28,0.121,0.0572,-0.0256,-0.0139
AAAAGGT,0.0931,-0.0132,0.144,0.909,-0.049,1.4,0.132,0.0807,-0.184,-0.0255
TGTCTGC,0.0617,0.144,-0.0572,-0.23,0.136,-0.575,0.192,0.0454,0.101,0.109
TGGGTCT,-0.0866,-0.0466,0.666,1.54,-0.0214,2.08,0.155,-0.000652,-0.0605,0.0738
TGGCAGG,0.15,0.0666,0.357,0.756,0.153,0.597,0.177,0.0766,-0.0564,0.14
CCCTTAG,0.0162,-0.0773,-0.755,-0.439,-0.0175,-1.4,0.0656,0.0317,0.131,0.0034
TCCAAGA,0.123,0.0101,0.113,0.238,0.11,-0.64,0.201,0.0941,0.0911,0.0363
ACGGTTG,-0.113,-0.151,-0.243,0.229,-0.237,-0.34,-0.006,-0.0275,-0.115,-0.163
GCACGGG,-0.0289,-0.0968,-0.135,0.25,-0.0897,-0.386,0.161,-0.12,-0.0693,0.0701
TAGTCTA,-0.0415,-0.627,-0.255,-2.3,-0.812,-0.172,-3.09,-0.00628,0.0951,-0.0418
GATACTC,0.0211,0.0201,0.13,0.428,-0.0103,0.42,0.112,-0.00592,-0.0503,0.141
GTACCTG,0.0198,0.0323,0.119,0.442,0.0436,1.25,-0.0837,0.0392,-0.0338,0.0104

Sequence,uncleaved DNA left (log2) [1],uncleaved DNA left (log2) [2],uncleaved DNA left (log2) [3],uncleaved DNA left (log2) [4],uncleaved DNA left (log2) [5],uncleaved DNA left (log2) [6],uncleaved DNA left (log2) [7],uncleaved DNA left (log2) [8],uncleaved DNA left (log2) [9],uncleaved DNA left (log2) [10]
CCGCGTG,0.00378,0.0336,-0.36,-0.429,-0.0694,-0.565,0.239,0.095,0.0028,0.0439
AGCGTAG,0.0222,0.0374,-0.103,0.434,-0.012,0.477,0.0762,0.0532,0.0237,0.0728
CTAGATG,-0.007,0.0871,-0.0471,0.555,-0.0927,0.199,0.201,0.0754,-0.102,-0.0333
AAAGACC,0.0657,0.0492,0.0942,0.457,-0.00128,0.142,0.134,0.0523,0.00969,0.121
GGCTTTA,-0.0215,-0.00987,0.346,0.75,-0.0529,1.61,-0.012,-0.0963,0.0904,0.0254
ATAAAAT,-0.0203,0.0416,0.161,-0.716,-0.0444,-0.342,0.0321,0.174,0.0272,0.117
ACCACTC,-0.0603,-0.118,-0.146,-0.439,-0.042,-0.726,0.0602,-0.113,-0.233,-0.148
CCCTGAA,-0.127,0.0513,0.089,-0.153,0.00392,-0.522,-0.023,-0.0909,0.0158,0.0722
GTCCAGA,0.0346,0.0182,0.326,0.902,-0.0346,1.59,0.0792,0.0429,0.0675,-0.0588
GCCATAC,-0.013,-0.142,-0.0985,-0.00458,-0.103,-0.37,-0.0176,-0.069,-0.11,-0.123
ATGTTAT,-0.0444,0.0166,0.22,-0.248,0.0618,0.0726,-3.37,0.0726,0.142,0.145
TAGTACC,-2.91,-0.0591,-1.1,-2.01,-1.96,0.00449,-3.94,-0.347,0.0912,-1.31
GGGTCCT,-0.023,0.0361,0.755,1.74,-0.0224,2.16,-0.211,0.00926,0.0629,0.119
ATTCACA,-0.0612,-0.0157,-0.0793,-1.58,0.00761,-0.751,-0.209,0.0627,0.0871,0.0137
GGAGTAT,0.0628,0.197,0.645,1.67,0.0312,2.21,0.151,0.103,0.223,0.267
ACCGCGC,-0.0399,-0.102,-0.474,0.565,-0.246,-0.09,-0.0632,-0.185,-0.19,-0.137
AATGCCT,-0.0939,-0.219,-0.274,-1.49,-0.0676,-0.183,-0.307,0.0469,-0.0839,-0.0768
TACGGTA,-0.0163,-0.15,0.132,-0.71,-0.0386,0.602,-0.17,0.138,-0.139,-0.0926
TCGCAGG,0.0286,0.126,0.217,0.77,-0.061,0.958,-0.0546,-0.000436,-0.074,-0.0538
CCGTGCC,0.152,0.0671,-0.0989,-0.318,0.084,-0.776,0.0998,0.108,0.0329,0.0262
